Several values for one entry are separate records, joined by “and”; a condition that tells them apart may be missing. Equal values may be shown once.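 These data come from cells grown in 96-well plates and exposed to compound for 48 hours at five concentrations. GI50: concentration for 50% inhibition of growth.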 Activity calls are given as the source filed them. Cut-off read from the data, not from the text of the source: active = GI50 up to about 1.1 µM and inactive = higher.

In the test the test system is NCI-H322M. Nature of the test: growth of human tumour cells (NCI), 48 h.
Consider `N/C(=N\O)N/N=C/c1cc(Br)cc(Br)c1O`, for which the GI50 was inactive: 2.55 µM.

For the compound `O=C(O)C(Cc1cccs1)C(=O)O`, the GI50 is inactive: > 100 µM.

On to `CCCN1C(=O)CN(S(=O)(=O)c2ccc(Cl)cc2)C1=O`, for which the GI50 was inactive: > 100 µM.

With `CN(C)C(=S)NC(=S)Nc1ccc2ccccc2c1`, the GI50 is inactive: 12.7 µM.

Consider `CCc1nc(N)nc(N)c1-c1ccc(Cl)c(N=[N+]=[N-])c1`, for which the GI50 is inactive: 6.73 µM.

With `O=c1c2cc([N+](=O)[O-])cnc2sn1-c1ccc([N+](=O)[O-])cc1`, the GI50 was inactive: 34 µM.

In the case of `CC1(C2CCC3(C)OC3C2)CO1` (configuration not stated), the GI50 is inactive: > 100 µM.

`O=C1/C(=C/c2ccccc2)CCc2ccc([N+](=O)[O-])cc21`: the GI50 was inactive: > 100 µM.

For `O=C(CC(C(=O)c1ccoc1)c1ccco1)c1ccco1` (configuration not stated), the GI50 is inactive: > 100 µM.

For the compound `O=c1c2c3c(sc2nc2n1N=CN(c1ccc(F)cc1)C2)CCCC3`, the GI50 was inactive: > 100 µM.

With `CCOC(=O)C(SCCO)C(C(=O)OCC)n1cnc2c(N)ncnc21` (configuration not stated), the GI50 was inactive: 45.4 µM.

As for `O=C(Nc1ccc(Br)cc1)C(=O)C(C(=O)c1ccc(Cl)c(Cl)c1)C1OC(=O)c2ccccc21` (configuration not stated), the GI50 is inactive: 12.8 µM.

On to `COC(=O)C(=O)C(C(=O)C(=O)Nc1ccccc1C(N)=O)c1nc2ccc([N+](=O)[O-])cc2nc1O` (configuration not stated), for which the GI50 is inactive: > 100 µM.

Turning to `CCOP(=O)(OCC)[C@H](O)c1ccsc1`, the GI50 is inactive: > 100 µM.

Regarding `C[C@]12CC[C@H](O)CC1=CC[C@@H]1C2CC[C@]2(C)Nc3c(cnn3-c3ccc(F)cc3)CC12` (some centres not stated), the GI50 is inactive: 33 µM.

For `ClC1=C(Cl)C2OC3C=CCC3OC2C(Cl)=C1Cl` (configuration not stated), the GI50 was inactive: > 100 µM.

With `COC1(OC)c2occc2C(=N)c2ccc(=O)oc21`, the GI50 was inactive: > 100 µM.

Regarding `Cc1cc(C)nc(NC(=S)Nc2ccc(Cl)cc2)c1`, the GI50 is inactive: > 100 µM.

Take `CCOC(=O)c1c(Sc2ccc([N+](=O)[O-])cc2[N+](=O)[O-])nc2c3ccccc3ccn12`: the GI50 was inactive: > 100 µM.

Consider `O=C1CC(O)c2c1csc2Br` (configuration not stated), for which the GI50 is inactive: > 100 µM.

For the compound `O=C(N/N=C(COc1cccc(Cl)c1)\N=C\c1ccncc1)c1ccncc1`, the GI50 is inactive: > 100 µM.

Turning to `CC1=NN(c2cccc(Cl)c2)C(=N/c2nc3ccccc3s2)/C1=C\C=C\c1ccccc1`, the GI50 was inactive: 37.7 µM.

As for `N/C(=N\Nc1ccc(Cl)cc1)c1cnccn1`, the GI50 was inactive: > 100 µM.

Consider `O=C(CSc1nc2ccc(I)cc2c(=O)n1Cc1ccccc1)Nc1ccc(Br)cc1`, for which the GI50 was inactive: 26.8 µM.

Take `COc1ccc(C2Oc3ccc(Cl)cc3C=C2[N+](=O)[O-])cc1OC` (configuration not stated): the GI50 was inactive: 1.47 µM.

In the case of `O=c1[nH][nH]c(=O)n1Cc1cccc(Cn2c(=O)[nH][nH]c2=O)c1`, the GI50 was inactive: > 100 µM.

Turning to `COc1ccc([Se]c2ccc(OC)cc2OC)c(OC)c1`, the GI50 was inactive: 51.8 µM.

For `O=[N+]([O-])c1ccc(Cl)c(C2SCc3nc4ccccc4n32)c1` (configuration not stated), the GI50 was inactive: 38.6 µM.

On to `CN(C)C(=O)Oc1c(-c2ccccc2)c(=O)n2c3ccccc3n3c(=O)n(C)c(=O)c1c23`, for which the GI50 is inactive: > 100 µM.

Consider `CC(C)C(=O)/C=C/c1ccc(Cl)c(Cl)c1`, for which the GI50 was inactive: 32.1 µM.

As for `NC1CC(n2ccc(=O)[nH]c2=O)OC1C(O)CO` (configuration not stated), the GI50 is inactive: > 100 µM.

With `COC(=O)c1c(C)cccc1C1CN=NC12Cc1ccc(C)c(C)c1C2=O` (configuration not stated), the GI50 is inactive: 98.2 µM.

For `COC(=O)C1C2CC3C(OC(=O)C31)C2I` (configuration not stated), the GI50 is inactive: > 100 µM.

Regarding `CCOC(=O)CC1=Nc2ccccc2SC1`, the GI50 is inactive: 1.98 µM.

For the compound `COc1ccccc1C12OC(=O)C1(C)Oc1ccccc1C2=O` (configuration not stated), the GI50 was inactive: > 100 µM.

Consider `CCOC(=O)c1c(NS(=O)(=O)c2ccc(Br)cc2)sc2c1CCCC2`, for which the GI50 is inactive: 7.78 µM.

For the compound `C=C1C(=O)O[C@@H]2C[C@@]3(C)CCCC(=C)[C@@H]3C[C@H]12.C=C1C(=O)O[C@@H]2C[C@@]3(C)CCC[C@H](C)C3=C[C@H]12`, the GI50 is inactive: 8 µM.

Regarding `COc1ccc(/C=C(\C(=C/c2ccc(OC)cc2)[N+](=O)[O-])[N+](=O)[O-])cc1`, the GI50 is inactive: 16.6 µM.

For the compound `Cc1ccc(S(=O)(=O)ON=C2CC(c3ccccc3)N(C)C(c3ccccc3)C2)cc1` (configuration not stated), the GI50 is inactive: 21.7 µM and inactive: 22.4 µM.

As for `O=C(/C=C/c1ccc(Cl)cc1)c1ccccc(=O)c1O`, the GI50 was inactive: 2.23 µM.

Turning to `O=C1C(Br)=Cc2c(Cl)sc(Cl)c21`, the GI50 was inactive: 15.8 µM.

For the compound `CC(=O)/N=C1/N(/C=C2\C(=O)Oc3ccccc3C2=O)C(=O)/C(=C/c2ccccc2Cl)N1C`, the GI50 was inactive: > 100 µM.

In the case of `CCCCN(CCCC)CC(C(=O)Nc1ccc([N+](=O)[O-])cc1[N+](=O)[O-])/C(C)=N\NC(=O)c1ccncc1` (configuration not stated), the GI50 is inactive: > 100 µM.

On to `CCCCCCCC(=O)OCC1OC(n2cc(F)c(=O)[nH]c2=O)C(NC(=O)OCc2ccccc2)C(O)C1O` (configuration not stated), for which the GI50 was inactive: > 100 µM.

Consider `O=C(N/N=C(/CCN1CCCC1)CC(c1ccccc1)c1c(O)c2ccccc2oc1=O)c1ccncc1` (configuration not stated), for which the GI50 is inactive: > 100 µM.

On to `CCCCCCCCCC[C@H](O)[C@H](O)CC[C@@H](O)[C@H]1CC[C@@H]([C@H]2CC[C@H](CCCCCCC[C@@H](O)CC3=C[C@H](C)OC3=O)O2)O1`, for which the GI50 was inactive: 4.7 µM.

As for `NC1=NS(=O)(=O)Nc2nc(-c3ccc(Cl)cc3)c(-c3ccc(Cl)cc3)nc21`, the GI50 is inactive: > 100 µM.

In the case of `COCN/C(N)=N/C#N`, the GI50 was inactive: > 100 µM.

Regarding `COc1ccc(/C=C(\NC(=O)c2ccccc2)C(=O)NN(C)c2ccnc3cc(Cl)ccc23)cc1OC`, the GI50 is inactive: 41.7 µM.

With `C/C(CC(O)(/C=N/O)c1ccccc1)=N/O` (configuration not stated), the GI50 was inactive: 30 µM.

For `CCn1c2c(n(CC)c1=S)-c1c(n(CC)c(=S)n1CC)SSSS2`, the GI50 was inactive: > 74.5 µM.

On to `CCOc1ccc(/C=C/C(=O)c2sc(NNC(C)=O)nc2C)cc1`, for which the GI50 was inactive: > 100 µM.

`CCOC(=O)NC(=O)c1cn(CCN2CCN(C(=O)NCCCCCCNC(=O)N3CCN(CCn4cc(C(=O)NC(=O)OCC)c(=O)[nH]c4=O)CC3)CC2)c(=O)[nH]c1=O`: the GI50 is inactive: > 100 µM.

On to `CC(C)=CCN1c2ccccc2NC(=O)CC1C` (configuration not stated), for which the GI50 was inactive: > 100 µM.

With `Cc1c(Cl)c2ccccc2n1S(=O)(=O)c1ccccc1`, the GI50 is inactive: > 100 µM.

Consider `CCOC(=O)/C1=C(\C)N(c2ccc(C)cc2)C(=O)c2ccccc2C(=O)c2c(O)ccc(O)c21`, for which the GI50 was inactive: 24.3 µM.

`COc1ccc(S(=O)(=O)NC(CCC(=O)NC(N)=O)C(=O)NC(N)=O)cc1` (configuration not stated): the GI50 is inactive: > 100 µM.

With `COc1cc(C2SCCCCCCCCCCSC(c3ccc(O)c(OC)c3)SCCCCCCCCCCS2)ccc1O` (configuration not stated), the GI50 was inactive: > 100 µM.

`O=C(NC1C2CC3CC(C2)CC1C3)/C(Cl)=C1/Sc2ccccc2NC1=O` (configuration not stated): the GI50 was inactive: > 100 µM.

For `C=CCOC1OC(CO[Si](C)(C)C(C)(C)C)C(OCc2ccccc2)C(OCc2ccccc2)C1OCc1ccccc1` (configuration not stated), the GI50 is inactive: 54.5 µM.

On to `COc1cc(C2=C(C)[C@@H]3CN(CC=C3c3ccc(Cl)cc3)C2)c(S(=O)(=O)O)cc1OC`, for which the GI50 was inactive: > 100 µM.

For `CCCCCCCC(=O)OCC(C[As](=O)(O)O)OC(=O)CCCCCCC` (configuration not stated), the GI50 was inactive: 15.8 µM.

As to `O=C1NC(=O)C(C(=O)C(=O)Nc2ccc(Cl)cc2Cl)C(=O)N1`, the GI50 was inactive: > 100 µM.

As to `Cc1ccc(S(=O)(=O)n2cc(/C=C/C#N)c(/C=C/C#N)c2)cc1`, the GI50 was inactive: > 100 µM.

Take `COC(=O)C(Cc1c(-c2[nH]c3ccccc3c2CC(NC(C)=O)C(=O)OC)[nH]c2ccccc12)NC(C)=O` (configuration not stated): the GI50 was inactive: > 100 µM.

`O=C(O)c1ccccc1CC1Cc2cc3c(cc2C1)CCC3`: the GI50 is inactive: > 100 µM.

On to `COc1ccc(NC(=O)C2=C(SC)C(C#N)C(=O)N=C2N)cc1` (configuration not stated), for which the GI50 was inactive: > 100 µM.

As to `Cc1c(Cl)ccc2[s+]snc12`, the GI50 was inactive: 94.4 µM.

Take `C=CCn1c(-c2ccccc2)cs/c1=N\C(P(=O)(O)O)P(=O)(O)O`: the GI50 is inactive: > 100 µM.

Regarding `C=CCNC1=C2C[C@@H](C)C[C@@H](OC)[C@H](OC(=O)CN)[C@H](C)/C=C(\C)[C@@H](OC(N)=O)[C@H](OC)/C=C\C=C(/C)C(=O)NC(=CC1=O)C2=O`, the GI50 was inactive: 2.6 µM.

`C=C(C)CNC(=S)N(N)c1ccc(OC)cc1`: the GI50 was inactive: > 100 µM.

Consider `O=c1c2ccccc2oc2ccccc12.Oc1cccc2cccnc12`, for which the GI50 is inactive: 54.2 µM.

Take `NC(CCSCC(F)(F)F)C(=O)O` (configuration not stated): the GI50 was inactive: > 100 µM.

Turning to `O=C1CC(Nc2ccccc2)c2c(Cl)sc(Cl)c21` (configuration not stated), the GI50 is inactive: 5.68 µM.

As to `CCCCCCCCCCCCCCCCOCC(COP(=O)(O)OCC1OC(n2cc(CC)c(=O)[nH]c2=O)CC1O)OC(=O)CCCCCCCCCCCCCCC` (configuration not stated), the GI50 is inactive: > 100 µM.

Consider `CSc1nc(Nc2cccc(C(F)(F)F)c2)c2c(N)nn(C)c2n1`, for which the GI50 is inactive: > 100 µM.

As for `NC(=O)c1cccc(C2OC(COP(=O)(O)O)C(O)C2O)c1` (configuration not stated), the GI50 is inactive: > 50 µM.

Consider `CC1(C)C2CCC3=C(CCC4(C)C5C[C@](C)(C(=O)O)CC[C@]5(C)CC[C@]34C)[C@@]2(C)CC[C@@H]1O` (some centres not stated), for which the GI50 was inactive: 18.5 µM.

As to `Cc1cc2c([nH]c3ccccc32)c(O)c1-c1c(C)cc2c([nH]c3ccccc32)c1O`, the GI50 was inactive: 16 µM.

`Cc1cc(-c2nc3ccccc3s2)ccc1NS(=O)(=O)O`: the GI50 is inactive: > 34.4 µM.

Turning to `CCN1/C(=C/c2ccc3ccccc3[n+]2CC)C=Cc2ccccc21`, the GI50 is active: 0.494 µM.

Regarding `O=C1C[C@H](c2ccccc2)C2(C(=O)c3ccccc3C2=O)[C@H](c2ccccc2)C1`, the GI50 is inactive: > 100 µM.

Values taken from ChEMBL document CHEMBL1201862, “PubChem BioAssay data set” (2004).
